Source: the BET-seq Pho4 binding data (Le et al. 2018)
Some of the results follow. These are noisy estimates, calculated here from bound and input reads.

biological target: T1, Pho4 (S. cerevisiae) (UniProt P07270); assay: relative binding free energy (BET-seq); higher = weaker binding; details: reference: library average
T1 sequence: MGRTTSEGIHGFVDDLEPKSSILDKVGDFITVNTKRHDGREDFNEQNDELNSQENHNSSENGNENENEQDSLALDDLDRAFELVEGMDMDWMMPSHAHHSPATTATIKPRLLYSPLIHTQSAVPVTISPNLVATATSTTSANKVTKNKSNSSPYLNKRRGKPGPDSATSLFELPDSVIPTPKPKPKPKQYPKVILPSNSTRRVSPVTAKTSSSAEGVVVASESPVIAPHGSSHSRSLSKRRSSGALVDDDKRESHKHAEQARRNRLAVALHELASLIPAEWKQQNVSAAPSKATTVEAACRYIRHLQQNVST

Row | Sequence | relative binding free energy
1 | TATGTCACGTGGAATT | 0.13 kcal/mol
2 | TGATGCACGTGATCTG | 0.02 kcal/mol
3 | ATGGTCACGTGAGGCA | 0.27 kcal/mol
4 | TGGCGCACGTGCTAGT | -0.07 kcal/mol
5 | GTTGCCACGTGTGGGA | 0 kcal/mol
6 | GTCATCACGTGTTTTA | 0.11 kcal/mol
7 | ATTTTCACGTGGGACG | 0.23 kcal/mol
8 | GGGGACACGTGGTGCA | 0.04 kcal/mol
9 | TGGGGCACGTGTTGGT | -0.09 kcal/mol
10 | AGATGCACGTGAGGAG | 0.15 kcal/mol
11 | GAGGCCACGTGAGAGT | 0.35 kcal/mol
12 | ATTAACACGTGAGTAG | 0.14 kcal/mol
13 | AGAATCACGTGGTTTT | 0.15 kcal/mol
14 | CTAATCACGTGGTTTT | 0.07 kcal/mol
15 | GTCTGCACGTGGGGAT | -0.16 kcal/mol
16 | TGTCTCACGTGCAGTG | 0.14 kcal/mol
17 | TAGCTCACGTGATGTG | 0.27 kcal/mol
18 | TGGTTCACGTGTTTTA | 0.25 kcal/mol
19 | GGAGGCACGTGGGGAA | -0.03 kcal/mol
20 | AATGTCACGTGGCAGT | 0.07 kcal/mol
21 | TAAGACACGTGGGATT | -0.09 kcal/mol
22 | CTTTACACGTGTTGGG | 0.15 kcal/mol
23 | TAGTGCACGTGGTGAC | -0.04 kcal/mol
24 | AGTGGCACGTGGCGAC | -0.17 kcal/mol
25 | TTTGACACGTGTGTAA | 0.01 kcal/mol

Row | Sequence | relative binding free energy
26 | TATATCACGTGTATTA | 0.15 kcal/mol
27 | TTAGGCACGTGCGGAA | -0.25 kcal/mol
28 | AGATTCACGTGTGTCA | 0.27 kcal/mol
29 | TTGACCACGTGCGTGG | -0.17 kcal/mol
30 | ATGCGCACGTGGAAGG | -0.15 kcal/mol
31 | GGGCTCACGTGGCGTG | 0.09 kcal/mol
32 | AGTTACACGTGTTTGT | 0.05 kcal/mol
33 | CGTGACACGTGTATAG | 0.06 kcal/mol
34 | CGTAACACGTGTTTGG | 0.02 kcal/mol
35 | CTTTTCACGTGTGGTG | 0.24 kcal/mol
36 | GGGTGCACGTGTCTCT | 0.02 kcal/mol
37 | AGTTTCACGTGGTTTT | 0.28 kcal/mol
38 | TGTGTCACGTGGTGTC | 0 kcal/mol
39 | TGAAACACGTGTGGCT | 0.04 kcal/mol
40 | GTGATCACGTGATTGA | 0.18 kcal/mol
41 | GGGGTCACGTGGCACG | -0.03 kcal/mol
42 | CTATACACGTGTTGGT | 0.06 kcal/mol
43 | ATTAGCACGTGTCTTG | -0.04 kcal/mol
44 | CAGCGCACGTGTGAGG | -0.06 kcal/mol
45 | GGCGTCACGTGTGGCT | -0.09 kcal/mol
46 | GGGTCCACGTGGGGAA | -0.06 kcal/mol
47 | TAGCTCACGTGTGTTT | 0.36 kcal/mol
48 | CTTATCACGTGTGGCT | 0.22 kcal/mol
49 | TGATACACGTGTGGCA | 0.03 kcal/mol
50 | CGGTGCACGTGGATGA | -0.09 kcal/mol

Row | Sequence | relative binding free energy
51 | TATAACACGTGCGGTT | 0.01 kcal/mol
52 | CGTGACACGTGAGTGT | 0.05 kcal/mol
53 | TAGGCCACGTGGGGTG | -0.36 kcal/mol
54 | GATTTCACGTGTTTAG | 0.33 kcal/mol
55 | AGGGACACGTGCAGTT | -0.03 kcal/mol
56 | TGTTTCACGTGAAAGA | 0.25 kcal/mol
57 | TGCCTCACGTGGTGGT | 0.07 kcal/mol
58 | GGAATCACGTGTTTAG | 0.24 kcal/mol
59 | GATCTCACGTGGTATT | 0.31 kcal/mol
60 | AGGTTCACGTGTCTAT | 0.24 kcal/mol
61 | TGCTGCACGTGGTGTG | -0.15 kcal/mol
62 | TAAGGCACGTGCGGCG | -0.19 kcal/mol
63 | GGATGCACGTGAATGG | 0.19 kcal/mol
64 | TGTTGCACGTGATCAA | 0.13 kcal/mol
65 | AAAGGCACGTGGTGGG | -0.18 kcal/mol
66 | TTACTCACGTGGGGAT | 0.12 kcal/mol
67 | TTTGACACGTGTTACG | -0.01 kcal/mol
68 | GATGGCACGTGTAAGA | 0.13 kcal/mol
69 | TAGGTCACGTGGTGCA | 0.02 kcal/mol
70 | AAGGACACGTGCGTGG | -0.05 kcal/mol
71 | TTAGCCACGTGGTGTC | -0.12 kcal/mol
72 | TGGGTCACGTGTAAGG | 0.21 kcal/mol
73 | AGTTGCACGTGTAGTC | 0.09 kcal/mol
74 | TAAGTCACGTGGGAAT | 0.13 kcal/mol
75 | AATCGCACGTGTGTTT | -0.03 kcal/mol

Row | Sequence | relative binding free energy
76 | CGGGCCACGTGTGTAG | -0.03 kcal/mol
77 | GGGTGCACGTGTGAAG | 0.03 kcal/mol
78 | CGAGGCACGTGAGTTG | 0.09 kcal/mol
79 | GGAATCACGTGCTAGT | 0.18 kcal/mol
80 | ATAAGCACGTGGTCGG | -0.19 kcal/mol
81 | GTGATCACGTGAAAGG | 0.36 kcal/mol
82 | GAAGGCACGTGCAGGG | -0.18 kcal/mol
83 | GGACTCACGTGGGGTT | 0.09 kcal/mol
84 | TTAGTCACGTGGATGG | 0.07 kcal/mol
85 | GGATTCACGTGTGGGT | 0.3 kcal/mol
86 | GTGTGCACGTGTAGGA | -0.05 kcal/mol
87 | ATGTACACGTGATAAT | 0.19 kcal/mol
88 | CGGGGCACGTGTGCGT | -0.09 kcal/mol
89 | GATTTCACGTGGTAGG | 0.24 kcal/mol
90 | CATGGCACGTGTCTTT | 0.08 kcal/mol
91 | AGACGCACGTGAGTTT | 0.18 kcal/mol
92 | TATGGCACGTGTTGAT | 0.09 kcal/mol
93 | GTTCACACGTGGTCTT | 0.17 kcal/mol
94 | CGTGGCACGTGGTTGC | -0.19 kcal/mol
95 | GCGTGCACGTGTGTTT | -0.01 kcal/mol
96 | AAAGCCACGTGTGGGT | -0.12 kcal/mol
97 | TAAGGCACGTGGAAAT | 0.12 kcal/mol
98 | GGGATCACGTGACGAG | 0.32 kcal/mol
99 | ATGTTCACGTGGATGT | 0.13 kcal/mol
100 | GTAAGCACGTGGGGAA | -0.21 kcal/mol

Row | Sequence | relative binding free energy
101 | GATACCACGTGTGGTG | 0 kcal/mol
102 | TGTGACACGTGTTGTG | 0.02 kcal/mol
103 | AATATCACGTGAGAGG | 0.33 kcal/mol
104 | AGGTGCACGTGTAATG | 0.12 kcal/mol
105 | TATGGCACGTGTTGAC | -0.11 kcal/mol
106 | TCTTTCACGTGGCAGG | 0.21 kcal/mol
107 | TTAGACACGTGGGTCG | -0.07 kcal/mol
108 | GGGTTCACGTGTTGAT | 0.4 kcal/mol
109 | GTATACACGTGTTCGG | 0.05 kcal/mol
110 | AATAACACGTGGGATT | -0.14 kcal/mol
111 | CTTTTCACGTGAAAGG | 0.44 kcal/mol
112 | GGGGGCACGTGAGACT | 0.08 kcal/mol
113 | ATAAGCACGTGGAAGG | -0.09 kcal/mol
114 | CTTATCACGTGATTGG | 0.31 kcal/mol
115 | GTATCCACGTGATTGT | 0.23 kcal/mol
116 | GGCACCACGTGAGGGT | 0.19 kcal/mol
117 | TTGTGCACGTGCTAGA | -0.06 kcal/mol
118 | TGGGGCACGTGGCGAT | -0.19 kcal/mol
119 | CATTGCACGTGTTGGC | -0.01 kcal/mol
120 | TTTACCACGTGGGGCT | -0.12 kcal/mol
121 | GATCGCACGTGGGCGG | -0.09 kcal/mol
122 | AAGTGCACGTGTAATG | -0.05 kcal/mol
123 | GGACACACGTGTGGGA | 0.08 kcal/mol
124 | ATGGACACGTGGTGGT | -0.06 kcal/mol
125 | AGGGGCACGTGGTGAC | -0.26 kcal/mol

Row | Sequence | relative binding free energy
126 | AGGCGCACGTGAGTGG | 0.04 kcal/mol
127 | AGAGACACGTGTTTTG | -0.09 kcal/mol
128 | CATGGCACGTGATGGC | 0.2 kcal/mol
129 | GTCATCACGTGTGGTT | 0.4 kcal/mol
130 | GTTTGCACGTGAGCAA | 0.19 kcal/mol
131 | TTATACACGTGATTAG | 0.3 kcal/mol
132 | AGGGACACGTGTTAGA | -0.04 kcal/mol
133 | TCTGTCACGTGGCGGG | 0.09 kcal/mol
134 | TTTGGCACGTGAATGC | 0.14 kcal/mol
135 | CGTTGCACGTGGGCCG | -0.22 kcal/mol
136 | GTGAGCACGTGGAGAT | 0.07 kcal/mol
137 | ATGGTCACGTGGTGCC | 0 kcal/mol
138 | AAAGTCACGTGAGTAG | 0.17 kcal/mol
139 | TTAGACACGTGGAGCA | 0.06 kcal/mol
140 | AGTAGCACGTGGGCAT | -0.3 kcal/mol
141 | AGATTCACGTGACTGG | 0.27 kcal/mol
142 | TTATTCACGTGGATTT | 0.29 kcal/mol
143 | CTAATCACGTGTTTAG | 0.25 kcal/mol
144 | AAGCGCACGTGCTGGG | -0.08 kcal/mol
145 | TGAGTCACGTGGCGGG | 0.07 kcal/mol
146 | GTTATCACGTGGGATA | 0.14 kcal/mol
